Hit rate of the full screen: of about 16,000 compounds, about 120 (0.75%) were called active. Inconclusive results (about 4%) are left out. Calls come from the whole dose curve; as a rule, active = well fitted inhibition curve with a large enough effect; inconclusive = small, poorly fitted or top-dose-only effect; inactive = no such curve, though single readings can be large or run the other way. The list shows a part of the results.
Each compound was assayed against Rap guanine nucleotide exchange factor 3 (Homo sapiens) (UniProt O95398) (assay: Validation qHTS for antagonist of cAMP-regulated guanine nucleotide exchange factor 3 (EPAC1)). Conditions: EPAC1 Rap1B-BODIPY-GDP exchange, fluorescence; series mostly up to 150 µM; activity change, negative = inhibition: at the top concentration.
Summary of the method: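 EPAC1 (100 nM) mixed with 250 nM RAP1B-BODIPY-GDP and 50 uM GDP; compounds in concentration series, 5 min at room temperature. Fluorescence (ex 480/em 540 nm) read every 5 min for 30 min; normalized to ATA control and DMSO.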
Note: nearly all actives have a fitted effect of over 75% in size.

Chain of UniProt O95398 (O95398 whole entry, looked up): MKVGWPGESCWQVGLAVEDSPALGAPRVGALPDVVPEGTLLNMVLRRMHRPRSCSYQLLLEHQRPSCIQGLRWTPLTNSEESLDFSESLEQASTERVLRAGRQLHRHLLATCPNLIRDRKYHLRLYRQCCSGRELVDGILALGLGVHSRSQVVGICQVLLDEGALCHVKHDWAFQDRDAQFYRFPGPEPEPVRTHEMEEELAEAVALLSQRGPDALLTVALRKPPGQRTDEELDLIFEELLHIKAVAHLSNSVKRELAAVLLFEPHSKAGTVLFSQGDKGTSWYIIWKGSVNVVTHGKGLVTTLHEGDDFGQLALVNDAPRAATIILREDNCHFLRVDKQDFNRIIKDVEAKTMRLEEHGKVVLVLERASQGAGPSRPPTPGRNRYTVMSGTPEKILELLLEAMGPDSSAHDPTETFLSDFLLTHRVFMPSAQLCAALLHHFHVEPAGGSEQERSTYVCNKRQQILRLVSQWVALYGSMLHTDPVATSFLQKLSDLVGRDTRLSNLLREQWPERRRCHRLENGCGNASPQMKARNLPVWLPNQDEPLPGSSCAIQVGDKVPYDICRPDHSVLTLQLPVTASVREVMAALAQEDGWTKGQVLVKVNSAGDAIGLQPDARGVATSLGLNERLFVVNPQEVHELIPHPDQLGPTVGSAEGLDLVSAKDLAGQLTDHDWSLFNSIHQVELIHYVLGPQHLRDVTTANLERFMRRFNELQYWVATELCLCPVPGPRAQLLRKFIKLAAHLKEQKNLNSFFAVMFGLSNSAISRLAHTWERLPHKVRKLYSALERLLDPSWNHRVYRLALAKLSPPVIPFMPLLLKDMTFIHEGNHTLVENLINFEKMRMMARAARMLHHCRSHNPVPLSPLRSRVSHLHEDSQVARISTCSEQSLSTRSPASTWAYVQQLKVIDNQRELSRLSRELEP

Compound | activity change, negative = inhibition
CCO/N=C(\CC)C1=C(O)CC(c2c(C)cc(C)cc2C)CC1=O (stereo not given) | inactive: 19.8% [at 320 µM]
Clc1ccc(N2CC3CCC(C2)N3)nn1 | inactive: -10.7% [at 75.8 µM]
C[C@]12CCC(=O)C=C1CCc1ccc(O)cc12 | inactive: 9.13%
Cc1cccc(C)c1NC1=NCCCS1 | inactive
CCCCCN(C)CCC(O)(P(=O)(O)O)P(=O)(O)O | inactive
Nc1ccc(N)cc1 | inactive: -1.03%
COc1ccc2c(c1O)-c1cc(O)cc3c1[C@@H](C2)N(C)CC3 | inactive: 22%
CC(=O)O[C@H]1C[C@H](O[C@H]2[C@@H](O)C[C@H](O[C@H]3[C@@H](O)C[C@H](OC4CC[C@@]5(C)[C@H](CC[C@@H]6[C@@H]5CC[C@]5(C)[C@@H](C7=CC(=O)OC7)CC[C@]65O)C4)O[C@@H]3C)O[C@@H]2C)O[C@H](C)[C@H]1O[C@@H]1O[C@H](CO)[C@@H](O)[C@H](O)[C@H]1O (stereo not given in full) | inactive: 1.77%
CCC(N)Cc1c[nH]c2ccccc12 (stereo not given) | inactive
O=c1cccc2n1CC1CC2CN(CCO)C1 (stereo not given) | inactive: 8.39%
C[C@@H]1O[C@@H](O[C@H]2C[C@@H](O)[C@]3(CO)[C@@H]4C(CC[C@]3(O)C2)[C@@]2(O)CC[C@H](C3=CC(=O)OC3)[C@@]2(C)C[C@H]4O)[C@H](O)[C@H](O)[C@H]1O (stereo not given in full) | inactive
CC(C)(O)[C@H]1O[C@@H]2CC[C@]3(C)[C@@]4(C)c5[nH]c6ccccc6c5C[C@@H]4CC[C@]3(O)C2=CC1=O | inactive: -5.4%
CN1CCc2cc3c(cc2C1C1OC(=O)c2c1ccc1c2OCO1)OCO3 (stereo not given) | inactive
CC[C@H](Oc1ccc(Cl)cc1)C(=O)OC1C[C@H]2CC[C@@H](C1)N2C (stereo not given in full) | inactive: 4.6%
O=C(/C=C\c1ccc(Cl)cc1)N[C@@]12CCC(=O)[C@@H]3Oc4c(O)ccc5c4[C@@]31CCN(CC1CC1)[C@@H]2C5 | inactive: 16.4%
CCNC(=O)[C@H]1O[C@@H](n2cnc3c(N)ncnc32)[C@H](O)[C@@H]1O | inactive
CC(=O)OCC1=C(C(=O)O)N2C(=O)[C@@H](NC(=O)CCC[C@@H](N)C(=O)O)[C@H]2SC1 | inactive: -0.563% [at 75.8 µM]
CC1(C)S[C@@H]2[C@H](N)C(=O)N2[C@H]1C(=O)O | inactive: -1.54% [at 75.8 µM]
COc1c2c(cc3c1OCO3)CC[N+](C)=C2 | inactive: -3.75%
CN1C(=O)COc2c(C(=O)NC3CN4CCC3CC4)cc(Cl)cc21 (stereo not given) | inactive: -2.75%
CCN(CC)CCO[C@H]1CC[C@@]2(C)C(=CC[C@@H]3[C@@H]2CC[C@]2(C)C(=O)CC[C@@H]32)C1 | inactive: 8.64%
Cc1ccc(S(=O)(=O)N[C@@H](CCCCN)C(=O)CCl)cc1 | inactive
CCCN1CCC[C@@H](c2cccc(O)c2)C1 | inactive: -2.45% [at 75.8 µM]
CC1/C=C/C=C/CC/C=C/C=C/C=C/C=C/C(OC2OC(C)C(O)C(N)C2O)CC2O[C@](O)(CC(O)C(O)CCC(O)CC(O)CC(O)CC(=O)OC(C)C(C)C1O)CC(O)C2C(=O)O (stereo not given in full) | inactive: 4.9%
O=C1CN=C(c2ccccc2)c2cc([N+](=O)[O-])ccc2N1 | inactive: 21%

Compound | activity change, negative = inhibition
CC[C@]12CCCN3CCC4(c5ccccc5NC4C(C(=O)O)C1)C32 (stereo not given in full) | inactive: -11.2%
CCCCCCCCCCCCCC(=O)O[C@@H]1[C@@H](C)[C@@]2(O)[C@@H](C=C(CO)C[C@@]3(O)C(=O)C(C)=C[C@@H]23)C2C(C)(C)[C@@]21OC(C)=O (stereo not given in full) | inactive: -20.3% [at 75.8 µM]
C[C@]12CC[C@@H](O)C[C@H]1CC[C@@H]1[C@H]2CC[C@]2(C)C(=O)CC[C@@H]12 | inactive: -0.629%
N[C@@H](Cc1ccc(Oc2cc(I)c(O)c(I)c2)c(I)c1)C(=O)O | inactive: -27.2%
CNC(=O)Oc1cccc2c1OC(C)(C)O2 | inactive: 16.4%
O=c1[nH]c(=O)n(Cl)c(=O)n1Cl | inactive: -2.02%
CC(C)NC(=O)N1CCC2(CC1)CCN(C(=O)Oc1ccccc1)CC2 | inactive: 12.5%
CCCCN(CC)c1c([N+](=O)[O-])cc(C(F)(F)F)cc1[N+](=O)[O-] | inactive: -4.23%
CC(=O)OC1CCC23C(=O)OC45CCC(C6=CC(=O)OC6)C4(C)CCC2C5CCC3(O)C1 (stereo not given) | inactive: -2.32%
CN1CC[C@@]2(C)c3cc(O)ccc3N(C)[C@@H]12 | inactive: 10.1%
CC1=CC(=O)C2=C(C)C[C@H](O)[C@H]3[C@H](C)C(=O)O[C@@H]3C12 (stereo not given in full) | inactive: 15%
CC(C)NC(C)C | inactive: 2.98%
COC(=O)CN1CN(c2ccccc2)C2(CCN(Cc3ccc4ccccc4c3)CC2)C1=O | inactive: -16.9%
CC(C)(O)C1C2OC(=O)C1[C@]1(O)CC3O[C@@]34C(=O)OC2[C@@]14C (stereo not given in full) | inactive: 13.1%
COc1cc2c(cc1OC)C(C)NCC2 (stereo not given) | inactive: 10.2%
C=C(C)[C@H]1O[C@H]2CC[C@@]3(C)[C@@](O)(CC[C@H]4[C@@H]5OC(C)(C)[C@H]6C[C@@H]7C(=C)Cc8c(Cl)cc9[nH]c(c5c9c8[C@@]76O)[C@@]43C)[C@]23O[C@@H]3[C@H]1O | inactive: -4.55%
COc1ccccc1CN1CC[C@@]2(CCCN(C(=O)Oc3ccccc3)C2)C1 | inactive: -0.285%
NC(=O)CN1CCCC1=O | inactive
COc1ccc(C[C@H]2NC[C@H](O)[C@@H]2OC(C)=O)cc1 | inactive: 6.76%
C[C@@H]1[C@@H]2Cc3ccc(O)cc3[C@@]1(C)CCN2CCc1ccccc1 | inactive: 28.8% [at 320 µM]
[N-]=[N+]=NCCN1CCC(O)CCC1=O (stereo not given) | inactive: 12.2%
O=C(O)/C=C\CO | inactive: 11.6%
CC(=O)Oc1ccc(Cl)c2cccnc12 | inactive: 7.81%
COc1ccc(C(=O)c2c(C)n(CCN3CCOCC3)c3cc(I)ccc23)cc1 | inactive: -15.1%
O=P1(NCCCl)OCCCN1CCCl (stereo not given) | inactive: 6.36% [at 75.8 µM]
